# Assay results published in PubChem BioAssay AID875 (National Center for Advancing Translational Sciences (NCATS), 2007).
# Values joined by “and” are separate entries in the source; they are usually repeats but may differ in a detail not shown here. Equal values may be shown once. In all, about 75,000 compounds went through this assay and about 35 (0.05%) were called active. This list was built around the results that the source calls inconclusive (neither active nor inactive); the mix of calls is not that of the screen. The call rests on the fitted dose curve; in most records, active means well fitted inhibition curve with a large enough effect; inconclusive means small, poorly fitted or top-dose-only effect; inactive means no such curve, though single readings can be large or run the other way. A potency beside an inconclusive call is a rough fit, not a confirmed value. Some structures have more than one record in an assay (separate samples or runs), and their calls can disagree.
# Biological target: Breast cancer type 1 susceptibility protein (Homo sapiens) (UniProt P38398)
# Sequence of UniProt P38398 (P38398 whole entry, looked up): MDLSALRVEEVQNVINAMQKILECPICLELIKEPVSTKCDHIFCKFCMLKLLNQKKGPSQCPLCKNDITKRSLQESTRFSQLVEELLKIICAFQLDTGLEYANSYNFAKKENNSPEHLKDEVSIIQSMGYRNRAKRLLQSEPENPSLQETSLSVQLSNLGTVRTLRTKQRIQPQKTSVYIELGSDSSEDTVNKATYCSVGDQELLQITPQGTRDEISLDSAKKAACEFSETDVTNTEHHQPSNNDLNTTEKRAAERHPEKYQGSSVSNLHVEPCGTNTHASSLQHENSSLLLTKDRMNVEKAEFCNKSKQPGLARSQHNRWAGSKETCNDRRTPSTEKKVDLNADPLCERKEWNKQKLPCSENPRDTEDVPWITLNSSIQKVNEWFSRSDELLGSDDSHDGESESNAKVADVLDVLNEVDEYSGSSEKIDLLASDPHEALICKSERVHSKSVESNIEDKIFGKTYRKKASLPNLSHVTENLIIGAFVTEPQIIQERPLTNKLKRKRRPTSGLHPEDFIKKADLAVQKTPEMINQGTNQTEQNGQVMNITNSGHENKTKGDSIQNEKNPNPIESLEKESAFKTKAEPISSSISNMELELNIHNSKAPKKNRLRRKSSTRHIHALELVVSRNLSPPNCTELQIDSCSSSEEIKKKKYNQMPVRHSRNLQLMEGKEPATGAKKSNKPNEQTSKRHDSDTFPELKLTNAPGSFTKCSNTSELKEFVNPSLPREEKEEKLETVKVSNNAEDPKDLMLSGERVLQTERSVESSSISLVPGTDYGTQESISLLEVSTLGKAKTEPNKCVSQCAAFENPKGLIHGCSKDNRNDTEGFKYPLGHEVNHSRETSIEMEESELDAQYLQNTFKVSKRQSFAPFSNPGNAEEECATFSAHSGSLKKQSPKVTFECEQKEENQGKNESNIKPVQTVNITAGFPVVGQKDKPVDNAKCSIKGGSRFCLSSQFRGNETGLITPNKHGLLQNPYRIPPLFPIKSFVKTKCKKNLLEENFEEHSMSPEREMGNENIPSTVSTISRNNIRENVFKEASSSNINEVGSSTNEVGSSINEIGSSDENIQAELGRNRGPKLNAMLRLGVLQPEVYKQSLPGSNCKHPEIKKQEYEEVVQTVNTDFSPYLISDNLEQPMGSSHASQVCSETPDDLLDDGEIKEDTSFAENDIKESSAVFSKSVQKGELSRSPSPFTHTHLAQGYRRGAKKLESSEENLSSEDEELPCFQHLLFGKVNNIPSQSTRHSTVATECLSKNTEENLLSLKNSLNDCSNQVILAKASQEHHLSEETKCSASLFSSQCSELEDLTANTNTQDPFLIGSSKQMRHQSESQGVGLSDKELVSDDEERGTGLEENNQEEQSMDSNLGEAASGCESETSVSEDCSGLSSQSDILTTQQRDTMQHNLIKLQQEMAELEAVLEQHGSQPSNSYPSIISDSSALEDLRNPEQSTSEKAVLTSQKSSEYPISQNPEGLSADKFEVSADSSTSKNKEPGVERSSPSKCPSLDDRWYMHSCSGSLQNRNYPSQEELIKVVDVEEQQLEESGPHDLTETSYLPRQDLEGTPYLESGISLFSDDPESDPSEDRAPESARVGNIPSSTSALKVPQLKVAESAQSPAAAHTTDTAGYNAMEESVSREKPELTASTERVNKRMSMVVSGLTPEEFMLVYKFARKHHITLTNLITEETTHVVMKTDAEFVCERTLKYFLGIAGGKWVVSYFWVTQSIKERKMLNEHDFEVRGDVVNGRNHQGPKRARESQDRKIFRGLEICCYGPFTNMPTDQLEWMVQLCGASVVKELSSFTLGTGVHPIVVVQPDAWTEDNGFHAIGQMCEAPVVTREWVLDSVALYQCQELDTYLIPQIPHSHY
# Assay: qHTS Assay for Inhibitors of BRCT-Phosphoprotein Interaction (Green Fluorophore);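 on activity change, negative = inhibition: plate controls were peptide without protein for full effect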
# Conditions: BRCA1 BRCT-phosphopeptide binding, green fluorescence polarization; series mostly up to 76.9 µM; activity change, negative = inhibition: at the top concentration
# Method: NIH Molecular Libraries Screening Centers Network [MLSCN]
# NIH Chemical Genomics Center [NCGC]
# PI Name: Natarajan, Amarnath; University of Texas
# A complex of BRCT (C-terminal portion of BRCA1, MW ~35 kDa, His-tagged) and fluorescently labeled pBACH1 phosphorylated 10 aa peptide fragment of BACH1, a helicase implicated in DNA repair, is incubated with library members. Inhibitors of BRCT-pBACH1 binding are detected by a decrease in the fluorescence polarization (FP) of the fluorophore. In order to minimize the effect of fluorescence artifacts and to increase the overall robustness of the screen, the compound library members were incubated in separate reactions with fluorescein labeled probe-protein complexes. Protein and labeled probes were supplied by Dr. Amarnath Natarajan, Department of Pharmacology and Toxicology, University of Texas Medical Branch Galveston, TX.
# Assay Buffer: 16mM Na2HPO4, 4 mM NaH2PO4, 150 mM NaCl, 1 mM EDTA, 1 mM DTT, 0.02% NaN3, and 0.01% Tween 20 at pH 7.3.
# 100 nM labeled decapeptide/250 nM protein in columns 1, 2, 5 - 48. Titration of unlabeled decapeptide control (from 10 mM, then 1:2 dilution in duplicate) pin-transferred to column 2, rows 1 to 16. Column 1 is neutral.
# Three uL of reagents were dispensed to 1536-well Greiner black solid-bottom plates. Compounds and controls (23 nL) were transferred
# via Kalypsys PinTool. The plates were incubated for 12 min at room temperature, and then read on ViewLux (Perkin-Elmer) High throughput CCD imager using FITC for the fluorescein-labeled decapeptide probe polarization filter sets. During dispense, reagent bottles were kept submerged into 4 deg C water bath and all liquid lines were covered with aluminum foil to minimize probe and protein degradation. All screening operations were performed on a Kalypsys robotic system (Kalypsys, Inc., San Diego, CA) containing one RX-130 and two RX-90 anthropomorphic robotic arms. The timing and order of assay plates passing through the screening system were adjusted such that each compound library plate was assayed against the fluorescein- and rhodamine-labeled assay systems at immediately adjacent time points.
# Potency means the concentration at half of the fitted maximal effect; tags describe the fitted curve by direction and shape.
Compound,Potency,"activity change, negative = inhibition"
CC[C@@]1(O)C(=O)OCc2c1cc1n(c2=O)Cc2cc3c(CN(C)C)c(O)ccc3nc2-1,"inconclusive: 6.31 µM [inhibitor, single point]",
Cc1nc(N=Nc2cc(S(=O)(=O)O)c3cc([N+](=O)[O-])cc(S(=O)(=O)O)c3c2)c(COP(=O)(O)O)c(C=O)c1O,"inconclusive: 50.1 µM [inhibitor, single point]",
CCNc1cccc2c1C(=O)N(C)C2=O,"inconclusive: 25.1 µM [inhibitor, single point]",
CC(=O)OCC(=O)[C@@]1(O)CCC2C3CC[C@H]4CC(O)CC[C@@]4(C)C3C(=O)C[C@]21C (stereo partly drawn),,inactive: -2.99%
Cn1c(-c2nc(-c3ccccc3)cs2)nc2ccccc21,active: 39.8 µM,
O=C1c2ccccc2-c2onc3ccc(NCCCn4ccnc4)c1c23,active: 0.794 µM,
CCCn1c(C)nc2c(N(CCN(C)C)Cc3ccccc3)nc(C)nc21,,inactive: 0.096%
O=C(Nc1nc(-c2ccco2)c(-c2ccco2)s1)C1CC(=O)N(c2ccc3c(c2)OCCO3)C1 (stereo not drawn),"inconclusive: 25.1 µM [inhibitor, partial curve]",
COc1ccc2ccccc2c1C(O)c1nccn1C (stereo not drawn),active: 12.6 µM,
COc1cccc(Nc2ncc3nc(-c4cccs4)c(=O)n(C[C@H]4CCCO4)c3n2)c1,"inconclusive: 50.1 µM [inhibitor, single point]",
Cn1c(=N)c(S(=O)(=O)c2ccc(F)cc2)cc2c(=O)n3ccccc3nc21,"inconclusive: 39.8 µM [inhibitor, single point]",
COCCn1c(CN2CCN(c3ccc(OC)cc3)CC2)nc2c1c(=O)n(C)c(=O)n2C,,inactive: -2.83%
C=CCNc1nc(N(c2ccccc2)c2ccccc2)nc(-n2ccnc2)n1,,inactive: -1.1%
C[C@@H](CN1CCC(Cc2ccccc2)CC1)[C@H](O)c1ccc(O)cc1,,inactive: -2.42%
Cc1c(S(=O)(=O)O)oc2c1C(=O)C(=O)c1c-2ccc2c1CCCC2(C)C,active: 31.6 µM,
O=C(OC1CCCCC1)c1ccc2c(c1)C1C=CCC1C(C(=O)O)N2 (stereo not drawn),"inconclusive: 50.1 µM [inhibitor, single point]",
Cc1cc2nc3c(=O)[nH]c(=O)nc-3n(C[C@H](O)[C@H](O)[C@H](O)CO)c2cc1C,active: 7.94 µM,
CC1(C)CC(=O)C2=C(C1)N1CCCCC1CC2=O (stereo not drawn),"inconclusive: 31.6 µM [inhibitor, single point]",
CCCCCCN(C(=O)CCCCCN1C(=O)NC(C2CCCCC2)C(C(=O)OCc2ccccc2)=C1C)C(C(=O)NCCCC)c1ccc(OCC(=O)OC)c(C(=O)OC)c1 (stereo not drawn),,inactive: 7.33%

Compound,Potency,"activity change, negative = inhibition"
COc1cccc(Cn2c(=O)c(-c3cccs3)nc3cnc(Nc4cccc(OC)c4)nc32)c1,"inconclusive: 31.6 µM [inhibitor, single point]",
CCOC(=O)c1cc2n(c1N)-c1ccccc1C2=O,active: 15.8 µM,
CC(C)(Sc1ccc(CCN(CCCCC2CCCCC2)C(=O)NC2CCCCC2)cc1)C(=O)O,"inconclusive: 50.1 µM [inhibitor, single point]",
CCOc1cc(C2C(C#N)=C(N)OC(C)=C2C(C)=O)cc(Br)c1O (stereo not drawn),"inconclusive: 50.1 µM [inhibitor, single point]",
N=c1oc2c3c4c(cc2cc1C(=O)Nc1ccccc1)CCCN4CCC3,"inconclusive: 1.26 µM [inhibitor, full curve, poor fit]",
Cc1ccccc1Cn1c(CN2CCN(c3ccc(F)cc3)CC2)nc2c1c(=O)n(C)c(=O)n2C,"inconclusive: 39.8 µM [inhibitor, single point]",
CCCn1c(-c2ccc(F)cc2)nc2c(NCCN3CCCCC3)nc(C)nc21,,inactive: -0.214%
CC(C)=CCc1c2c(c3occ(-c4ccc(O)cc4)c(=O)c3c1O)C=CC(C)(C)O2,,inactive: 0.354% [at 3.08 µM]
C=CC1=C(C)C2=NC1=CC1=NC(=CC3=NC(=CC4=NC(=C2)C(C)=C4CCC(=O)O)C(CCC(=O)O)=C3C)C(C=C)=C1C.[Zn],"inconclusive: 39.8 µM [inhibitor, partial curve]",
c1coc(C2Nc3cccc4cccc(c34)N2)c1,"inconclusive: 6.31 µM [inhibitor, single point]",
Nc1nc2sc3c(c2cc1C(=O)N1CCOCC1)CCCC3,,inactive: -3.1%
O=C(NCc1ccccc1)c1ccc(Cc2nc3ccccc3[nH]2)cc1,,inactive: -1.5%
CCn1c(CSc2nnc3ccccn23)nc2cc(C(=O)O)ccc21,,inactive: 0.817%
O=C1OC2(c3cc(Br)c(O)c(Br)c3Oc3c2cc(Br)c(O)c3Br)c2c(Cl)c(Cl)c(Cl)c(Cl)c21,"inconclusive: 50.1 µM [inhibitor, single point]",
CCOc1ccc(C(=O)Nc2ccc(N3CCN(C)CC3)cc2)cc1Br,,inactive: -0.161%
CCN(CC)CCC[C@H](C)Nc1c2ccc(Cl)cc2nc2ccc(OC)cc12,"inconclusive: 31.6 µM [inhibitor, partial curve] and inconclusive: 7.94 µM [inhibitor, full curve]",
COc1cc(-c2ccc(N=Nc3ccc4c(S(=O)(=O)O)cc(S(=O)(=O)O)c(N)c4c3O)c(OC)c2)ccc1N=Nc1ccc2c(S(=O)(=O)O)cc(S(=O)(=O)O)c(N)c2c1O,active: 39.8 µM,
O=C(CN1c2cccc3cccc(c23)S1(=O)=O)N1CCOCC1,"inconclusive: 15.8 µM [inhibitor, partial curve]",
COc1ccc(N2CCN(c3ncnc4nc[nH]c34)CC2)cc1,"inconclusive: 39.8 µM [inhibitor, single point]",
